# Measurements taken from PubChem BioAssay AID588855 (National Center for Advancing Translational Sciences (NCATS), 2011).
# Where “and” joins values, the source holds several entries; their conditions need not be identical. Equal entries are not always repeated. Hit rate of the full screen: of about 410,000 compounds, about 5,000 (1.2%) were called active. The inconclusive results got no clear call from the source; some entries with a clear call stand among them for comparison. Calls come from the whole dose curve; as a rule, active = well fitted inhibition curve with a large enough effect; inconclusive = small, poorly fitted or top-dose-only effect; inactive = no such curve, though single readings can be large or run the other way. Potencies beside an inconclusive call are fits to weak or partial responses and may not hold up.
# Experiment: qHTS for Inhibitors of TGF-b; note: nearly all actives have a fitted effect of over 65% in size
# Settings: HepG2 CAGA-GFP TGF-b/SMAD3 reporter, GFP fluorescence, 18 h, TGF-beta stimulated, 500 pg/mL final; series mostly up to 46.1 µM
# In short: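 Inhibition was scored as loss of TGF-beta-induced (500 pg/mL final, 18 hours, 37 degrees C) GFP in HEPG2 cells carrying a CAGA-GFP reporter, in DMEM with 1% FBS. Well GFP was summed per cell; Activity was normalised to unstimulated and stimulated DMSO wells, then concentration-response fitting.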
# Potency is the fitted concentration of half-maximal effect; tags give direction and shape of the fitted curve.
row,Compound,Potency
1,C[C@@H](C(=O)NCc1ccccc1)[C@H]1C[C@]1(C)[C@H](NC(=O)OCc1ccccc1)c1ccccc1,"inconclusive: 35.5 µM [inhibitor, single point]"
2,COc1cc2nc(N3CCNCC3)nc(N)c2cc1OC,"inconclusive: 35.5 µM [inhibitor, single point]"
3,CCc1ccc(N2C(=O)CSC23C(=O)N(Cc2cccc(F)c2)c2ccccc23)cc1 (centres undefined),inactive
4,CCCCn1nc2cc(C(=O)NCc3cc(C(F)(F)F)cc(C(F)(F)F)c3)ccc2c1OC,"inconclusive: 5.62 µM [inhibitor, single point]"
5,Cc1cc(NC(=O)COC(=O)C2CCC2)no1,inactive
6,O=[N+]([O-])c1ccc(S(=O)(=O)Nc2nc3ccccc3nc2Nc2ccccc2)cc1,"inconclusive: 1.12 µM [inhibitor, full curve, poor fit]"
7,Cc1ccccc1NC(=O)NCC1CCN(C(=O)OC(C)(C)C)CC1,"inconclusive: 35.5 µM [inhibitor, single point]"
8,O=C(CN1CCN(c2ccc(O)cc2)CC1)NC(c1ccccc1)c1ccccc1,inactive
9,Cc1ccc(NS(=O)(=O)c2ccc(C(=O)N3CCCCCCC3)cc2)cc1,inactive
10,CC(NS(=O)(=O)c1ccc(Cl)cc1)C(=O)NCCC1=CCCCC1 (centres undefined),"inconclusive: 17.8 µM [inhibitor, single point]"
11,Cc1cc(C)c(C(=O)OCCNC(=O)c2cccnc2)cc1C,inactive
12,CCCc1nc(SCC(=O)Nc2ccc(N3CCOCC3)cc2)c2ccccc2n1,inactive
13,COc1cccc(CNC(=O)CN2C(=O)CCn3nc(-c4cn(C)c5ccccc45)cc32)c1OC,inactive
14,O=C(CCNc1ccc(Cc2ccncc2)cc1)c1ccc([N+](=O)[O-])cc1,"inconclusive: 20 µM [inhibitor, single point]"
15,O=C(Cn1nc(C(F)(F)F)c2c1CCCC2)Nc1ccc(Cl)cc1,"inconclusive: 14.1 µM [inhibitor, single point]"
16,O=C(c1sc2cccc(Cl)c2c1Cl)N1CCN(CCc2ccccn2)CC1,"inconclusive: 22.4 µM [inhibitor, single point]"
17,O=C(CN(CCc1ccccc1)S(=O)(=O)c1ccc(Cl)cc1)N/N=C/c1ccc2c(c1)OCO2,"inconclusive: 0.562 µM [inhibitor, full curve]"
18,CC1CCN(Cc2c(C(=O)N/N=C/c3cc(Cl)ccc3O)nnn2-c2nonc2N)CC1,"inconclusive: 3.16 µM [inhibitor, single point]"
19,Cc1cccc(OCC(=O)Nc2ccc3c(c2)N(C)C(=O)c2ccccc2S3)c1,"inconclusive: 0.631 µM [inhibitor, full curve]"
20,CS(=O)(=O)c1ccc(C(=O)OCC(=O)Nc2ccc(OC(F)(F)F)cc2)cc1[N+](=O)[O-],"inconclusive: 25.1 µM [inhibitor, single point]"
21,CC(=O)Oc1ccccc1Cn1c(C)c(C(=O)NCc2cccc([N+](=O)[O-])c2)sc1=O,"inconclusive: 35.5 µM [inhibitor, single point]"
22,CN(C)S(=O)(=O)c1ccc(N2CCCC2)c(C(=O)N2CCN(S(=O)(=O)c3ccc(F)c(F)c3)CC2)c1,inactive

row,Compound,Potency
1,O=Cc1ccc(-c2cccs2)s1,active: 5.62 µM
2,Cc1cc(Cl)cc(Cl)c1OCCOc1cccc2cccnc12,active: 11.2 µM
3,Cc1ccccc1C1c2[nH]c3ccccc3c2CCN1Cc1cccn1-c1ncccn1 (centres undefined),"inconclusive: 35.5 µM [inhibitor, single point]"
4,CC(C)(C)OC(=O)CN1C(=O)NC2(CCCc3ccccc32)C1=O (centres undefined),inactive
5,COc1cc(C)c(NC(=O)COc2ccc3c(c2)CCC3)cc1OC,inactive
6,O=C(NCCc1ccc(Cl)cc1)c1cccn1-c1nnc(N2CCCC2)s1,"inconclusive: 25.1 µM [inhibitor, single point]"
7,c1ccc(C(=NNc2nc3ccccc3s2)c2ccccn2)cc1,"inconclusive: 3.16 µM [inhibitor, full curve, poor fit]"
8,COc1ccc(CNC(=O)CCCn2c(SCC#N)nc3cc4c(cc3c2=O)OCO4)cc1,"inconclusive: 31.6 µM [inhibitor, single point]"
9,CC(C)c1ccc(C2C3=C(COC3=O)Nc3cc4c(cc32)OCO4)cc1 (centres undefined),"inconclusive: 0.316 µM [inhibitor, full curve, poor fit]"
10,CCC(c1ccc(O)c(O)c1)C(CC)c1ccc(O)c(O)c1 (centres undefined),"inconclusive: 14.1 µM [inhibitor, single point]"
11,Cn1cc(CCNC(=O)C2CCC(=O)N(CCc3ccc(Cl)cc3)C2)cn1 (centres undefined),"inconclusive: 15.8 µM [inhibitor, single point]"
12,CCOc1ccc(-c2nc(CSCC(=O)NC3CCN(Cc4ccccc4)CC3)c(C)o2)cc1,"inconclusive: 10 µM [inhibitor, partial curve, poor fit]"
13,COC(=O)[C@@]1(Cc2ccc(OC)cc2)[C@H]2c3cc(C(=O)N4CCCC4)n(CCO)c3C[C@H]2CN1C(=O)c1ccccc1,"inconclusive: 20 µM [inhibitor, single point]"
14,COc1cc(Cn2c3ccc(NC(=S)NCc4ccc(C)cc4)cc3c(=O)n2C)ccc1F,"inconclusive: 20 µM [inhibitor, partial curve, poor fit]"
15,COCCNc1oc(COc2cccc(C)c2)nc1C#N,inactive
16,CCCN(c1ccc(C)cc1)c1nc(=O)c2cccnc2s1,"inconclusive: 35.5 µM [inhibitor, single point]"
17,Cc1occc1C(=O)N1CCN(c2ccc(Cl)c(Cl)c2)CC1,"inconclusive: 25.1 µM [inhibitor, single point]"
18,CCOc1ccccc1NS(=O)(=O)c1ccc2oc(=O)c3ncn(C)c3c2c1,"inconclusive: 17.8 µM [inhibitor, partial curve, poor fit]"
19,CCn1cc(C(=O)NC(C)c2ccccc2)c(=O)c2cc(S(=O)(=O)N3CCc4ccccc4C3)ccc21 (centres undefined),"inconclusive: 3.55 µM [inhibitor, full curve]"
20,Clc1cccc(N=C2NN=C(c3ccc4c(c3)OCCO4)CS2)c1,active: 10 µM
21,Cc1ccc(-n2nc(C)c3nc(CCC(=O)Nc4ccc(F)cc4)c(=O)n(C)c32)cc1,"inconclusive: 0.112 µM [inhibitor, full curve, poor fit]"
22,CCC(C)(C)n1nnnc1C(c1ccccc1F)N1CCN(C(=O)c2ccco2)CC1 (centres undefined),"inconclusive: 3.16 µM [inhibitor, single point]"

row,Compound,Potency
1,CS(=O)(=O)N1CCc2ccccc2C1,inactive
2,C=CC[n+]1c(-c2ccc(OC)c(OC)c2)csc1NNC(=O)Nc1ccccc1,"inconclusive: 35.5 µM [inhibitor, single point]"
3,CCOc1ccccc1N(C)C(=O)NCc1noc2ccccc12,"inconclusive: 35.5 µM [inhibitor, single point]"
4,O=C(CCl)N=c1sccn1Cc1ccccc1Cl,active: 11.2 µM
5,CCOc1cc(/C=C\c2[nH]c(=O)[nH]c(=O)c2[N+](=O)[O-])ccc1OC(C)CC (centres undefined),inactive
6,COC(=O)c1scc(-c2ccc(C)cc2)c1S(=O)(=O)Nc1c(C)cc(C)cc1C,"inconclusive: 0.562 µM [inhibitor, full curve]"
7,O=C(c1ccc(F)cc1)N1CCN(c2cc(N3CCCCC3)c(F)cc2[N+](=O)[O-])CC1,"inconclusive: 14.1 µM [inhibitor, single point]"
8,COc1ccccc1C(NC(C)=O)c1cc(Cl)c2cccnc2c1O (centres undefined),"inconclusive: 3.55 µM [inhibitor, partial curve, poor fit] and inconclusive: 4.47 µM [inhibitor, full curve, poor fit]"
9,O=C1CCN(CCc2ccccc2)CCN1CCSc1ccc(Br)cc1,"inconclusive: 7.94 µM [inhibitor, partial curve, poor fit] and inconclusive: 35.5 µM [inhibitor, partial curve, poor fit]"
10,CC1COCC(C)N1C1=C(Cl)C(=O)c2ccccc2C1=O (centres undefined),"inconclusive: 35.5 µM [inhibitor, single point]"
11,COc1ccc(C(=O)N2CCc3ccc(NC(=O)c4ccccn4)cc3C2)cc1F,"inconclusive: 35.5 µM [inhibitor, single point]"
12,Cc1ccc2nc(CN3CCN(C(=O)Nc4cccc(C)c4C)CC3)oc2c1,"inconclusive: 2 µM [inhibitor, partial curve, poor fit]"
13,O=C(CN(Cc1ccco1)C(=O)c1ccccc1)Nc1ccc(Cl)c(Cl)c1,"inconclusive: 15.8 µM [inhibitor, single point]"
14,COc1ccc(OC)c(N/C=C2/CCCCC2=O)c1,"inconclusive: 7.94 µM [inhibitor, partial curve, poor fit]"
15,C[C@H]1CN([C@@H](C)CO)C(=O)CCCn2cc(nn2)CO[C@@H]1CN(C)C(=O)C1CCCCC1,"inconclusive: 6.31 µM [inhibitor, single point]"
16,COc1cc2[nH]c(=S)nc(NCCCOC(C)C)c2cc1OC,inactive
17,O=C(COc1ccc(S(=O)(=O)N2CCOCC2)cc1)Nc1ccc(Cl)c(C(F)(F)F)c1,"inconclusive: 22.4 µM [inhibitor, single point]"
18,C[C@H]1CN=C(Nc2ccccc2)N1CCC1CCCCC1,inactive
19,CNc1oc(-c2ccc(Cl)cc2)nc1P(=O)(c1ccccc1)c1ccccc1,"inconclusive: 35.5 µM [inhibitor, single point]"
20,CC1(C(=O)NCc2cccc3ccccc23)CCN1Cc1ccc2ccccc2c1 (centres undefined),"inconclusive: 35.5 µM [inhibitor, single point]"
